# Data as given in the supplement of paper PMC11417369.
# Some of the results follow.
# System: PfSIP2 AP2 domain 1 (GST-tagged)
# Test: gcPBM binding intensity (ln(normalized median fluorescence intensity)); higher = stronger DNA binding
# Summary of the method: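 Plasmodium falciparum DNA-binding domains carrying a GST tag were expressed in E. coli and applied for 1 h, at about 25 μg on average, to an Agilent 4 × 180k array. The array held primer-extended double-stranded 36-bp intergenic genomic probes together with negative controls, and binding took place in 1× PBS with 1% milk, 0.2 mg/ml BSA, 0.5% salmon testes DNA and 0.03% Triton X-100. An Alexa488 anti-GST antibody detected bound protein, and the array was scanned at 488 nm. Binding intensity is taken as the highest Masliner-normalised natural-log median intensity across replicate spots of either probe orientation.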
row,Sequence,gcPBM binding intensity (ln)
1,TAAAAATATATGTATACACACATATATATATATATA [CACACA_site3951],9.33
2,AAAAAAAGTGACTCCTTACACACTTTACATAATTTA [CACACA_site820],6.81
3,AATATTGAAATAACGCGTACAAAAAAAAGTTATATT [XGTACX_site6559],6.9
4,ATGTTATATTATAAAAGTACATTTTATTTTTATTTA [XGTACX_site4365],7.14
5,ATTTCCTTTTTCTGTTGTACTCATAAAATAATATGT [XGTACX_site7234],7.47
6,TTAATTTATAAAAACACACACAGGTAAAAAGGTGCA [CACACA_site1177],9.31
7,AATATAACTTTTTGCACACTTAATTTTTTTTTTTAA [CACACA_site3365],7.38
8,TAACAAAAAGCACTTAGTACATATATATATATATAT [XGTACX_site1099],9.43
9,TATATTTATTATAACACACACATATTTATATTATAG [CACACA_site6628],6.91
10,TTTCTTTTTAAATATATACACACCGGGTGTACATAT [CACACA_site3345],6.78
11,AGGTAATATACTAAATGTACAGAAAAACGAATTTTT [XGTACX_site2977],6.81
12,AATGAAATAATACAATGTACGTTAAAAAAAAATAAA [XGTACX_site7928],6.93
13,TAATATCAAACCTATAGTACATAAGGTATAAAAAAG [XGTACX_site3533],7
14,GTATTATTTTATGATGCATGTGTATTTCATATATGC [TGCATGCA_site660],6.98
15,AAAAAAAAAAAAATTACACACATACCTATAAGAATA [CACACA_site7097],7.09
16,TTTTCTTTTTTCTTTTTAACTCTTACATAATAGGTG [CACACA_negctrl_site642],6.83
17,TAAAATGAATAAAATTGTACTTAATAATATTTTAAA [XGTACX_site5532],6.55
18,AATATATGTTAAAATGGTACACAATTATTATATATT [XGTACX_site6407],6.93
19,AAAAAAAAAAAAAAGAGTACTTTTTTCACATTCATC [XGTACX_site8795],7.17
20,TAAATCAAAAACAACAAGTCATATTAAAGATGGTAT [CACACA_negctrl_site1321],7.01
21,CTTATAATATTACGGGTGCTATAAATACATTATATT,8.39
22,TTGTTTCAAAATTAAACACACACAAAAAAAAAAAAA [CACACA_site8856],7.19
23,AAGGAAAACAGTAGGTGTACCAAACGTCCTAGGAAC [XGTACX_site3659],6.64

row,Sequence,gcPBM binding intensity (ln)
1,TATATTTATATCATCACACATTTTTTTTTTCTTTTT [CACACA_site6150],6.58
2,GGATATATAAGATACACACACAAATTAAATATAAAA [CACACA_site7333],7.03
3,TAATATATAAATATATGTACATAATTAATAGGATAT [XGTACX_site237],7.27
4,TATTCCTAATTTAAAAGTACATATATATATATATAT [XGTACX_site3008],9.51
5,TTTTTTAAATTTAAAGTGCATTATTATATATTTGTA,8.06
6,AAAAAAGAAATAAGGATACACACTATTGATAAAAGT [CACACA_site272],7.2
7,CCAGTGTGCACCTTGCGTACATATTAAATTAATTAA [XGTACX_site3729],12.2
8,GGATAAGAAAAGAAGTGTACATATATATATATATAT [XGTACX_site8290],9.42
9,TTCTTTTAAAAATATATTTTAAGAAAATTTAATTTA [GTGCAC_negctrl_site237],6.89
10,TTTATTTTTTGAAACACACACAAAAAAAATGATACA [CACACA_site1881],7.26
11,AAAAAAAAAATATATATATATATATATATATATATA [GTGCAC_negctrl_site467],9.51
12,CAAAAAAAAAAACGGGTGCTAAATTTTATTTTTTAT,8.63
13,ATAAAGCACACCGACACACACATATATATATATATA [CACACA_site1047],9.41
14,TATCATGGTTCGGATTGTACATATATGAATTTTTTT [XGTACX_site7478],6.99
15,TGATATTATAGATATACACACATGTATGTATTTATA [CACACA_site6758],6.86
16,AAATTTAGTAAAAAATGTACGTAAAATGTAAAATAT [XGTACX_site1314],7.48
17,ATACTAACATTTTTTTGTACATATAACTATAAAATA [XGTACX_site1033],7.32
18,AAGGTAAACGGACACACACACATACAAAAAAAAAAA [CACACA_site5961],7.43
19,TATATATTATATAAATAAATAAATATATATATTTAT [TGCATGCA_negctrl_site270],7
20,AATGATTTTGATTAACGTACGTACAAATATATATAT [XGTACX_site6604],8.31
21,AGACCTATGATATATACACACATATAAATAAATATA [CACACA_site6725],6.99
22,TTATTAAATATAAATATGTATCTTTTATGTTATATT [CACACA_negctrl_site306],6.75
23,TAAATCCGCAGGCACACACACATATTAATAAAAAAA [CACACA_site3991],6.96

row,Sequence,gcPBM binding intensity (ln)
1,TATTTTACGACATACCAAAAAAAAAAAAAAAAAATA [CACACA_negctrl_site1254],6.87
2,AAAAAAAAAAGACACACACACATAGACCTCCAATAG [CACACA_site7646],6.75
3,AATGTTAAACTATGATGTACGGTTAAAAATATAATT [XGTACX_site893],7.21
4,TCCTCATTTTATCATACACACTTGTTTATATGTGTG [CACACA_site6548],7.03
5,ATATATAATAATTGTAGTACAATTAATAAATAAAAT [XGTACX_site3840],7.08
6,TATATATATATAATTTGTACACACAAATATGCATAT [XGTACX_site7297],9.4
7,AATATTTATAAATTTACACACACACCCGTGAACATA [CACACA_site1910],6.94
8,TTATCATTTTAAATCACACACATATATAAATATGTA [CACACA_site7359],6.95
9,ATACGATTGCAGTCAAAAAGGAAAATATAAAAAAAG [XGTACX_negctrl_site124],7.29
10,ATATATATGTATGTATATATATATATATATGTTTGA [CACACA_negctrl_site107],7.53
11,TTAATAACGTAATGTAAATGTTTCATACCCTTTTTT [CACACA_negctrl_site988],6.77
12,TTTTTTTTTCTGTATACACACAAAATTTATTTTTTA [CACACA_site2873],6.77
13,ATAAAATAAAAACATGCACACTTTATTTTTTTTAAG [CACACA_site5545],9.31
14,AAAGAAGGGGGGGGAAAAAAAAATAAAAGAGGAAAA [XGTACX_negctrl_site92],8.91
15,TGGGGTATTAAAAAAACACACAAAAAAAATATAAAG [CACACA_site1915],7.1
16,AAAATGTATATTGGCGCATGTAAACAAATACTATAC [TGCATGCA_site385],7.13
17,TCAAAATGTGACATAAAAGAAAAAAAAAAAAAAAAA [CACACA_negctrl_site1092],6.94
18,GATAATAATAAGTGTACACATATATTTAGAAGAGTA [CACACA_site4245],7.25
19,AATATAAAAAATAATACACACACATGGCGACAAAAT [CACACA_site8765],7.28
20,ATGTAAGTAATTATCTGTACACATAATATATATATA [XGTACX_site2618],8.94
21,CACATAAATAATTAAACACACATTGTTCTAGACAAT [CACACA_site2378],6.81
22,TTTGAGTTACTATTCACACAAAATGGATAAATTAAT [CACACA_site5626],7.07
23,TACATATTACTATTCAGTACATATTTTTTTTTCATT [XGTACX_site7468],6.99

row,Sequence,gcPBM binding intensity (ln)
1,AGGATAAAAGTTATGGTGCATTAACCTATTTAAATA,10.2
2,TATATAGGTATATATACACACAACGGTTATAAATAT [CACACA_site4759],7.06
3,TATAAAGACACGAAAACACACATATGTAAATATATA [CACACA_site8056],7.27
4,TAGTTTTGAAAACAAACACACAAAAAAAAAAAAAAA [CACACA_site1692],6.88
5,AATTTTATTACTTTTACACACCTATATATCATTCAT [CACACA_site7525],7.05
6,ACCTTAAATAATACATGTACAAAAAAATTTATAATA [XGTACX_site1043],7.67
7,AAGAATAAGGAAAAATGTACAGAATGCACATATGAA [XGTACX_site4705],7.33
8,TAGGGATTATACCACACACACATACACATAAATATA [CACACA_site3178],7.08
9,AAAAAAAATACAAAAAGTACAAAAAATACAAAAAAA [XGTACX_site8844],6.79
10,TTCTTTTTTTAAAGAAGTACTATATTTTAAATTATA [XGTACX_site5059],6.67
11,TTTAAAATAAATTAATAGAACAAAAATAAAATGATT [GTGCAC_negctrl_site375],7.03
12,ATGTATATATATATATGTACATATTTTTTATATGTA [XGTACX_site441],7.11
13,AATAATAAAAAAAGTGCACACACATAATATATATAT [CACACA_site9100],10.6
14,TATAAAAAAATAAAAGGAATATACTTGCAAAGGGTA [CACACA_negctrl_site1438],7.18
15,AACAATATATTGATATTATTTTAAGTGATTATATAT [XGTACX_negctrl_site205],6.88
16,TTTCAAATGATTAAGTGTACATGTTTGCTTGCTCTT [XGTACX_site4697],6.96
17,TTTTTTTTTGTTATGTTGCACTTTGCCATATTATTA [GTGCAC_site9844],7.93
18,ATATTAAAATTTTAATGTACATGCGTATGTAGGAAT [XGTACX_site1673],7.39
19,AACATATATTTTTAATGTACAAGGTTGTAAAGAACT [XGTACX_site1405],7.17
20,TATATTATATTTTTATGTACTTATTTATTTTGTTTC [XGTACX_site6145],6.97
